Measured values published in publication PMC3313914.
Results are given in words; binding and its absence hold for the method and conditions named. Binding seen in cells or lysates may run through a third protein. Some binding calls cover weakened binding; strength is not graded here. For part of these data: Where a sequence is shown, tags or fusion partners need not be part of it. Each block holds one molecule with its values, some of them ahead of it.

By UniProt entry, the sequences of proteins in these tests, tags left out. Where a name states a change or a piece, a line headed by the entry shows the natural chain unless it says otherwise.
UniProt P47822: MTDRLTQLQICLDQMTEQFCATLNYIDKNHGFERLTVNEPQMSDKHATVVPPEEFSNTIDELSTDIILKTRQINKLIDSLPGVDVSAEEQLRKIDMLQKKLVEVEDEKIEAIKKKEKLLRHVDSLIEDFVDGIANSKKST
UniProt P63208: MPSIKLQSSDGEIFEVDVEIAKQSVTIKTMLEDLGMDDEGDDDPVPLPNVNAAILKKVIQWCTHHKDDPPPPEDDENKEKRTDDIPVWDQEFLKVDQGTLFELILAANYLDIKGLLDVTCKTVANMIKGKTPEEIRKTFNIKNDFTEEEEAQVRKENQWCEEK
UniProt P52286: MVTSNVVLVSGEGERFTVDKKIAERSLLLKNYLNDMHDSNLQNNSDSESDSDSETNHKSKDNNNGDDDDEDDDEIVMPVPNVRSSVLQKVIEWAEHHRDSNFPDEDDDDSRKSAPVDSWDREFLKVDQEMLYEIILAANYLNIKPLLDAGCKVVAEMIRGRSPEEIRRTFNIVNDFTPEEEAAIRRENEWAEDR
UniProt Q06213: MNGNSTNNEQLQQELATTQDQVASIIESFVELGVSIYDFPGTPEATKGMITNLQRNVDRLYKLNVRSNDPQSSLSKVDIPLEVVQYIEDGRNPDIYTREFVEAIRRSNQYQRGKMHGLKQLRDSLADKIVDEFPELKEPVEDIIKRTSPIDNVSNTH

Assays:
[1] = target: Srb7 fused to Cub-RUra3 (S. cerevisiae) (UniProt P47822); test: split reporter; Split-Ubiquitin assay in S. cerevisiae JD52: Srb7 fused to Cub-RUra3 and Nub-HA fused to Skp1 derivatives; lack of growth without uracil and growth on FOA
[2] = target: T1, GST-hSrb7 (human) (UniProt Q13503); test: pull-down; GST fusions purified from E. coli extracts with glutathione beads, incubated with S. cerevisiae extract containing Nub-HA-hSkp1; washed five times; Western blot with anti-HA; only the target purified
T1 sequence: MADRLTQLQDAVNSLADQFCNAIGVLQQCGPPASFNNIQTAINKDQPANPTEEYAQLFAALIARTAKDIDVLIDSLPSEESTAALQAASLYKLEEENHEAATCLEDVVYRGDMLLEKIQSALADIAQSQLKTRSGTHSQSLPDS

[3] = target: T2, hSrb7-Cub-RUra3 (human) (UniProt Q13503); test: split reporter; Split-Ubiquitin screen and retest in S. cerevisiae JD52: hSrb7-Cub-RUra3 with a Nub library of human B-cell cDNAs; FOA plates with 10 µM CuSO4; interaction shown by FOA resistance
T2 sequence: T1 sequence

[4] = target: T3, GST-Gal80 (S. cerevisiae) (UniProt P04387); test: pull-down; GST or GST-Gal80 expressed in BY4741ΔW cells together with the HA-tagged partner; cells grown with glucose or induced with galactose for 1 h; pulled down from cell extracts with glutathione beads, 4°C, 1 h, five washes; Western blot with anti-HA
T3 sequence: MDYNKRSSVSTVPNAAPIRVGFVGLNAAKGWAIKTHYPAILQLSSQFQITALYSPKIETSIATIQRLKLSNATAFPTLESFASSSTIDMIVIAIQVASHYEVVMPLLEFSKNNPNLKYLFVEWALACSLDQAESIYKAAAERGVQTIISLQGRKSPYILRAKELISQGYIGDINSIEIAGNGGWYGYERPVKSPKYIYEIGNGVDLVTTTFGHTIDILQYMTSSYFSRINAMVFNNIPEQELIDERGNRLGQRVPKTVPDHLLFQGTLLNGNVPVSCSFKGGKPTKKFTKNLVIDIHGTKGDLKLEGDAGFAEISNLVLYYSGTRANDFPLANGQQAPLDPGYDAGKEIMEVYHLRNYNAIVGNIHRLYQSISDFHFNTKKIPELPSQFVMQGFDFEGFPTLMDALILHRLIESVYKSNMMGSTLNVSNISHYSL

[5] = target: T4, Snf1-Cub-RUra3 (S. cerevisiae) (UniProt P06782); test: split reporter; Split-Ubiquitin assay in S. cerevisiae JD52: Snf1-Cub-RUra3 from the SNF1 locus with Nub fusions of Mediator subunits; growth on FOA and lack of growth without uracil; 28°C
T4 sequence: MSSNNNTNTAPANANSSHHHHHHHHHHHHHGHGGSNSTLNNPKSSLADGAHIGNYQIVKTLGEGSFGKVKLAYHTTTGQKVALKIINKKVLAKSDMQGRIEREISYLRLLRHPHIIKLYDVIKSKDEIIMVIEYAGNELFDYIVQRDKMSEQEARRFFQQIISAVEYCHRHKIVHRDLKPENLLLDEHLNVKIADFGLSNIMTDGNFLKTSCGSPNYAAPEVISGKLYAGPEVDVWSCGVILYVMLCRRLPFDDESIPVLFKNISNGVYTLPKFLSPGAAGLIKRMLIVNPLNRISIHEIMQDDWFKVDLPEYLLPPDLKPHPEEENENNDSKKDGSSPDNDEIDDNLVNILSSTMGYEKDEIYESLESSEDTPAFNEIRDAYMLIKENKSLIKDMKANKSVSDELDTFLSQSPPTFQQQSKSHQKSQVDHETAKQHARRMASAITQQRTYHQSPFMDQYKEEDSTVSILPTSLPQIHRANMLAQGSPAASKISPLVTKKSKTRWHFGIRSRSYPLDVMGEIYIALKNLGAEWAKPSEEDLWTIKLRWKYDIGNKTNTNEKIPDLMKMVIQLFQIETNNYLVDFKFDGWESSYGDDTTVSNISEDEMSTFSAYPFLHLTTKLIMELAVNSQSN

[6] = target: T5, hSrb7-Cub-RGpt2 (human) (UniProt Q13503); test: split reporter; human Split-Ubiquitin system in HT1080HPRT- fibroblast cells stably expressing hSrb7-Cub-RGpt2 and Nub-hSkp1; growth in 6TG media and lack of growth in HAT media
T5 sequence: T1 sequence

[7] = target: myc-tagged hSkp1 (human) (UniProt P63208); test: co-IP; lysate (PBS, freeze-thaw) of HeLa cells transfected with pCMV-myc-hSKP1; anti-myc agarose beads overnight in ice cold PBS; four washes; blot with anti-Med6
[8] = target: GST-hSkp1 (human) (UniProt P63208); test: pull-down; GST fusions purified from E. coli extracts with glutathione beads, incubated with E. coli extract containing H6-HA-hSrb7; washed five times; Western blot with anti-HA; only the target purified

binding [1]: no binding
Molecule: Nub-HA-Skp1V90A,E129A (from UniProt P52286 1-194)

binding [2]: binds
binding [3]: binds
Molecule: Nub-HA-hSkp1 (from UniProt P63208 1-163)

binding [4]: binds
Molecule: Skp1-HA3-H10 (from UniProt P52286 1-194)

binding [6]: binds
Molecule: Nub-hSkp1 (from UniProt P63208 1-163)

binding [5]: no binding
Molecule: Nub fusion of Srb7 (from UniProt P47822 1-140)

binding [7]: binds
B3: hMed6 (protein, UniProt O75586 1-246)
chain: MAAVDIRDNLLGISWVDSSWIPILNSGSVLDYFSERSNPFYDRTCNNEVVKMQRLTLEHLNQMVGIEYILLHAQEPILFIIRKQQRQSPAQVIPLADYYIIAGVIYQAPDLGSVINSRVLTAVHGIQSAFDEAMSYCRYHPSKGYWWHFKDHEEQDKVRPKAKRKEEPSSIFQRQRVDALLLDLRQKFPPKFVQLKPGEKPVPVDQTKKEAEPIPETVKPEEKETTKNVQQTVSAKGPPEKRMRLQ

binding [5]: binds
B4: Nub fusion of Srb6 (protein, UniProt P32570 1-121)
chain: MSNQALYEKLEQTRTILSVKLAELINMTTIADRNDDDEGSFAQENSELAVATTSVMMVNNQTMQLIKNVQDLLILTRSIKEKWLLNQIPVTEHSKVTRFDEKQIEELLDNCIETFVAEKTT

binding [5]: binds
B5: Nub fusion of Srb11 (protein, UniProt P47821 1-323)
chain: MSGSFWTSTQRHHWQYTKASLAKERQKLWLLECQLFPQGLNIVMDSKQNGIEQSITKNIPITHRDLHYDKDYNLRIYCYFLIMKLGRRLNIRQYALATAHIYLSRFLIKASVREINLYMLVTTCVYLACKVEECPQYIRTLVSEARTLWPEFIPPDPTKVTEFEFYLLEELESYLIVHHPYQSLKQIVQVLKQPPFQITLSSDDLQNCWSLINDSYINDVHLLYPPHIIAVACLFITISIHGKPTKGSSLASAASEAIRDPKNSSSPVQIAFNRFMAESLVDLEEVMDTIQEQITLYDHWDKYHEQWIKFLLHTLYLRPASAI

The remaining lines, values behind:

Molecule: Nub fusion of Med10 (from UniProt Q06213 1-157)
binding [5]: binds

B1: HA3-tagged Mdm30 (protein, UniProt Q05930 1-598)
chain: MTKRRNLFMVGSSFTIDHLPPEIWLCISKLVGTSDLHNLCLINRRLYLTITSDEIWKRRCYDRWINRESLDILTGNDYDSIPVSQWYSYYLRRAKWENKIFCLLWGLTEETNPQHFREKYLHILQFRHYKLATFLHRIIKQGYIPDKRPLDLITYANYLLKNVRHKYVFPLFYPTNAAELKNLNNMASRDAEMIYLRLSAIDTSFDDLLDAREFILNGICSDLLQKYKKIEEFLKLRPVTRVSKLISISTDYLDCFTQPHDSVGQTNDRATGRELHREDFMLLRVYSREGRGYKTIILAIIQAITKRYNVDSYLARDHLVVSEPDFPDGRAFVTVNEDFQPYIFDKEDLLSVWSNNFHNAENFESTVLPALLEPISIQHLLTEFFRELLRCKPRPFEGYPNRAHGLRDMFPYGKVEVPRDVTMYFAFIYDLFDGMFESGMTSLRGQMLRDLLNYVNANNFGDLNIIIGQNALKEPNDCWSNKRDYVLLDDNNKIGYFYTDIETEDTLCALNQYEVDGKVFITTIDILGDIRVRLAEGLTPFQGDNDKLWESFSSVVPRTDWGLFFKGYDKERRRMQLNPYIEEKLSNLANDEQPLHNL
binding [4]: binds

B2: Nub fusion of Med6 (protein, UniProt P38782 1-295)
chain: MNVTPLDELQWKSPEWIQVFGLRTENVLDYFAESPFFDKTSNNQVIKMQRQFSQLNDPNAAVNMTQNIMTLPDGKNGNLEEEFAYVDPARRQILFKYPMYMQLEEELMKLDGTEYVLSSVREPDFWVIRKQRRTNNSGVGSAKGPEIIPLQDYYIIGANIYQSPTIFKIVQSRLMSTSYHLNSTLESLYDLIEFQPSQGVHYKVPTDTSTTATAATNGNNAGGGSNKSSVRPTGGANMATVPSTTNVNMTVNTMGTGGQTIDNGTGRTGNGNMGITTEMLDKLMVTSIRSTPNYI
binding [5]: binds

B6: HA3-tagged Ufo1 (protein, UniProt Q04511 1-668)
chain: MERPGLVLQDLPPEILINIFSHLDEKDLFTLQELSTHFRNLIHDEELWKNLFKSRVHTTHFPTFSQSSKFSVEYIERTRGLHHWQHNKAIRTKYTIIPTRNWDQPSIERIVFDYPRVAAYNDGTITILQLQNHKRQKKFKKLIYIPCTTPQGCSTMDFNINAAVFGRFDGRVFGKLLSNKSYLTPVMEFTGRHSAGVTAICNSESWDTSREDWSVSGSENGEIIWWCENKLVKMWKVSNRVIWKLAFFKDWTLIMDDEKLYIIHQMQELHSIDIPKDLDEQPMRVRFFKMDFGSMTLVLADLNNVYTISVNPNGNFGNLRKLEMPEQICAVEIDEKTSQREQNWQFAGDDGCYISLLTTQNTLYIINIRDLSSSGLKVQCKISFDEQVYVSQVTNLIVVVALPNVLQILNAMTGELIKTVLKTEKFPEFLKVSQDKIIMGSGNVLNYLKFVSSDSKKHHHSTKGKNTVSNKWNETLNTELQYYDEDEDLRRKRQSEISRLIDAYGGDLELSGDTDEENDIQLRIALLESQEAQARNQAEAGEPVGDDEDEQLRRALEESQLIYETQTNSSANHGNNTNDEIDEDDEEFLRAIRQSRVEDERRRHLRNHTTGRRNGPLSDDNFATYGAAESSERTSTENTIGSSVGVDASNNVDEDLQLAIALSLSEIN
binding [4]: binds

B7: H6-HA-hSrb7 (protein, UniProt Q13503 1-144)
chain: T1 sequence
binding [8]: binds

B8: HA3-tagged Das1 (protein, UniProt P47005 1-663)
chain: MPFQDYFQKKKAAFINRNNKSNADASALRDINDININFAAKSKNYVFPLTKLPDELMQEVFSHLPQPDRLQLCLVNKRLNKIATKLLYRRIYLNDSNVVKSDFMHLAINWTLLNLPSSLKEEESRDIANCKLKKLIETLQNNIHITEVIQWIRINWDLDSTLQRSILSILCNQGKSLQRLENVTDPACNDIISNGHFSRSNVSSFDMAPPNSLPEMVVPENYIPNLTKYLSQRISSRLSHMTLFIDPLKLFNYLYPLDIKLQIIDLKLHWRREFYNNDYFVKKIRPGNPLTKLSEVFDKRTLKILTIISWNDTLLKRETEMLKDFKEFENLEDLSLISIKQDVHILVDLFSSLTNLKRLKMDFLEEYVPEPTNPHIFLSILLACSKLQFIDLRYDGLIPQIINIQENKFQLNQQCNCTNCQIVFSDILKGKIFMFPEDYYIHDLQDIAAKDIFKMMKYLSLLPYSKACDAYPSVRTQPMNLTNFVTKMNRNLLEYRNSKSQLVPKIVNNPHQHSTVTSTSTAHMSEPEMIIIDDDDDDDEINAAIPPSSDDTAATISTDLELPHESLTKRDIIMCYHALIHHFKSIYVTFLKSFPHLRFLMLNDIPTIVMEENNERIFEPVFYHYDYKSNLYGWSKESNKNLENDSNNNNNNSDTIARIATVM
binding [4]: binds
